Variants at the floor of the assay are shown more often than the library holds them.
B1: tRNA (parent)
chain: CUCUCGGUAGCCAAGUUGGUUUAAGGCGCAAGACUUUAAUUUAUCACUACGAAAUCUUGAGAUCGGGCGUUCGACUCGCCCCCGGGAGAUUUUUUCCUCGAGCAA

Variants of: B1
Experiment: nonsense suppression (GFP-seq) (ratio to wild type); higher = more function; SUP4oc tRNA, yeast GFP reporter sort-seq
Summary of the method: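 Sorted GFP/RFP bins of yeast were each Illumina-sequenced with a phred ≥30 cutoff; the cells held a genome-integrated ochre-suppressor tRNA variant from a library with ~3% random mutations, a galactose-driven GFP ochre reporter, and RFP. Culture was in raffinose/galactose medium containing 80 mg/L adenine. Nonsense suppression, termed GFPSEQ, is the median GFP/RFP of the bins weighted by each variant's estimated cell share per bin, relative to the unmutated parent tRNA, for variants reaching ≥100 reads and ≥30 cells.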
Variant CUCUCGGUAGACCAGUUGGUUUAAGGCGUAAGACUUUAAUUUAUCACUACGAAAUCUUGAGAUCGGGCGUUCGACUCGCCUCCGGGAGAUUUUUUCCUCGAGCAA has a nonsense suppression of at most 0.026. Work on CUCUCGGUAGACCAGUUGGUUUAAGGCGCAAGACAUUAAUUUAUCACUACGAAAUCUUGAGAUCGGGCGUUCGACUCGCCCCCGGGAGAUUUUUUCCUCGAGCAA yielded a nonsense suppression of at most 0.026. In the case of CUCUCGGUAGACGAGUUGGUUUAAGGCGCAAGACUUUAAUUUAUCACUACGAAAUCUUGAGAUCGGGCGUUCGACUCGCCCGCAGGAGAUUUUUUCCUCGAGCAA, the nonsense suppression is reported as at most 0.026. CUCUCGGUAGACUAGUUUGUUAAAGGCGCAAGACUUUAAUUUAUCACUACGAAAUCUUGAGAUCGGGCGUUCGACUCGCCCCCGGGAGAUUUUUUCCUCGAGCAA showed a nonsense suppression of at most 0.026. For CUCUCGGUAGACAGGUUGGUUUAAGGCGCAAGACUUUAAUUUAUCACUACGAAAUCUUGAGAUCGGGCGUUCGACUCGUCCCGGGGAGAUUUUUUCCUCGAGCAA, the nonsense suppression was at most 0.026. Work on CUCUCGGUAGACAGGUUGGUUUAAGGCGCAAGACUUUAAUUUAUCACUACGAAAUCUUGAAAUCGGGCGUUCGACUCGCCCCCGGGAGAUUUUUUCCUCGAGCAA yielded a nonsense suppression of at most 0.026. In the case of CUCUCGGUAGACAAGUUGGUUUGACGCGCAAGACUUUAAUUUAUCACUACGAAAGCUUGAGAUCGGGCGUUCGACGCGCCCCCGGGAGAUUUUUUCCUCGAGCAA, the nonsense suppression is reported as at most 0.026. In the case of CUCUCGGUAGACAAGUUGGUUUAGGGCGGAAGACUUUAAUUUAUCACUACGAAAUCUUGAGAUCGGGCGUUCGACUCGCCCCCGGGAGAUUUUUUCCUCGAGCAA, the nonsense suppression is reported as at most 0.026. Variant CUCUCGGUAGACAAGUUGGUUUAAGGCGCCAGACUUUAAUUUAUCACUACGAAAUCAUGAGAUCGGGCGUUCGACUCGCCCCCGGGAGAUUUUUUCCUCGAGCAA has a nonsense suppression of at most 0.026. Variant CUCUCGGUAGACAAGUUGGUUUAAGGCGCGAGACUUUAAUUUAUCACUACGAAAUCUUGAGAUCGGGCGUUCGACUCGCCCCCGGGAGAUUUUUUCCUCGAGCAA has a nonsense suppression of 0.0331. Work on CUCUCGGUAGACAAGUUGGUUUAAGGCGCGAGACUUUAAUUUAUCACUACGAAAUCUUGAGAUCGGGCGUUCGACUAGCCCCCGGGAGAUUUUUUCCUCGAGCAA yielded a nonsense suppression of at most 0.026. CUCUCGGUAGACAAGUUGGUUUAAGGCGCAGGACUUUAAUUUAUCACUACGAAAUGUUGAGAUCGGGCGUUCGACUCGCCCCCGGGAGAUUUUUUCCUCGAGCAA gave a nonsense suppression of at most 0.026. CUCUCGGUAGACAAGUUGGUUUAAGGCGCAAGGCUUUAAUUUAUCACUACGAAAUCUUGAGAUCGGGCGUUCGACUCGCCCCCGGGAGAUUUUUUCCUCGAGCAA showed a nonsense suppression of at most 0.026. CUCUCGGUAGACAAGUUGGUUUAAGGCGCAAGGCUUUAAUUUAUCACUACGAAAUCUUGAGAUCGGGCGUUCGACUAGCCGCCGGGAGAUUUUUUCCUCGAGCAA showed a nonsense suppression of at most 0.026. Variant CUCUCGGUAGACAAGUUGGUUUAAGGCGCAAGACUUUAAUUUAUCACUACGAACUCUUAAGAUCGGGCGUCCGACUCGCACCCGGGACAUUUUUUCCUCGAGCAA has a nonsense suppression of at most 0.026. In the case of CUCUCGGUAGACAAGUUGGUUUAAGGCGCAAGACUUUAAUUUAUCACUACGAACUCUUAAGAUCGGGCGUCCGACUCGCCCCCGGGACAUUUUUUCCUCGAGCAA, the nonsense suppression is reported as at most 0.026. In the case of CUCUCGGUAGACAAGUUGGUUUAAGGCGCAAGACUUUAAUUUAUCACUACGAACUCUCGAGAUCGGGCGUUCGACUCGCCCCCGUGAGAUUUUUUCCUCGAGCAA, the nonsense suppression is reported as at most 0.026. With CUCUCGGUAGACAAGUUGGUUUAAGGCGCAAGACUUUAAUUUAUCACUACGAAAUCUUGCGAUCGGGCGUUCGACUCGCCCCCGGGAGAUUUUUUCCUCGAGCAA the nonsense suppression was at most 0.026. In the case of CUCUCGGUAGACAAGUUGGUUUAAGGCGCAAGACUUUAAUUUAUCACUACGAAAUCUUGAGCUCGGGCGUUCGACUCGCCCCCGGGAGAUUUUUUCCUCGAGCAA, the nonsense suppression is reported as at most 0.026. For CUCUCGGUAGACAAGUUGGUUUAAGGCGCAAGACUUUAAUUUAUCACUACGAAAUCUUGAGAUCGGGCGUUCGGCUCGCCCCCGGGAGAUUUUUUCCUCGAGCAA, the nonsense suppression was at most 0.026. Variant CUCUCGGUAGACAAGUUGGUUUAAGGCGCAAGACUUUAAUUUAUCACUACGAAAUCUUGAGAUCGGGCGUUCGACUCGCCCCCGGGGAAUUUUUUCCUCGAGCAA has a nonsense suppression of at most 0.026. CUCUCGGUAGAAAAGUUGGUUUAAGGCGCAAGACUUUAAUUUAUCACUACGAAAUCUUGAGAUCGGGCGUUCGACUCGCCCCCGGGAGAUUUUUUCCUCGAGCAA showed a nonsense suppression of at most 0.026. With CUCUCGGUAGAAAAGUGGGUUGAAGGCGCAAGACUUUAAUUUAUCACUACGAAAUCUUGAGAUCGAGCGUUCGACCCGCCCCCGGGAGCUUUUUUCCUCGAGCAA the nonsense suppression was at most 0.026. With CUCUCGGUAGAGAAGUUGGUUUAAGGCGCAAGACUUUAAUUUAUCACUACGAAAUCUUGAGAUCGGGCGUUCGACUCGCCCCCGGGAGAUUUUUUCCUCGAGCAA the nonsense suppression was at most 0.026. CUCUCGGUAGAUAAGUUGGUUUAAGGCGCCAGACUUUAAUUUAUCACUACGAAAUCCUGAGAUCGGGCGUACGACCCGCCCCCGGGAGAUUUUUUCCUCGAGCAA showed a nonsense suppression of at most 0.026. CUCUCGGUAGACAAGUUGGUUUAAGGCGGAAGACUUUAAUUUAUCACUACGAAAUCUUGAGAUCGGGCGUUCGACUCGCCCCCGGGAUAUUUUUUCCUCGAGCAA gave a nonsense suppression of at most 0.026. For CUCUCGGUAGACAAGUUGGUUUAAGGCGCAAGAGUUUAAUUUAUCACUACGAAAUCUUGAGAUCGGGCGUUCGACUCACCCCCGGGAUAUUUUUUCCUCGAGCAA, the nonsense suppression was at most 0.026.
